Laboratory results taken from the supplement of paper PMC7826260.
This is one part of the list. Cleavage of a single-stranded DNA pool by Rep nickase domains was read by sequencing (3 µM enzyme, 1 h, 37 °C); shown is the middle of each 90-letter strand. Uncut reads are compared with the no-enzyme pool on a log2 scale; more negative means more cut, near 0 not cut, and no call is made. Shares of all reads are compared; values above 0 arise when much of the pool is cut.

Experiments:
Experiment in all cases: uncleaved DNA left, log2 of reads against the no-enzyme library (log2 ratio); higher = less cleavage (more negative = more Rep cleavage of the k-mer); sequences stand for … in CTCGTCCG…ACCGGAGA
[1] = test system: T1, Rep nickase domain of Muscovy duck circovirus
T1 sequence (residues 1-111, tag not shown): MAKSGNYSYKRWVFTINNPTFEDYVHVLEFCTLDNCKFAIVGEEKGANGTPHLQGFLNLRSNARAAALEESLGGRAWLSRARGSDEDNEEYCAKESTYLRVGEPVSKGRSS
Experimental: (§1)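 A pool of 90-nt single-stranded DNAs with seven random bases just before the constant AC of the nick site (name = the seven bases) was cut by 3 µM recombinant His6-SUMO-tagged Rep nickase domain (300 nM DNA, 50 mM HEPES pH 8.0, 50 mM NaCl, 1 mM MnCl2, 1 h, 37 °C, three replicates). Uncut DNA was amplified and sequenced.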

[2] = test system: T2, Rep nickase domain of banana bunchy top virus
T2 sequence (residues 1-94, tag not shown): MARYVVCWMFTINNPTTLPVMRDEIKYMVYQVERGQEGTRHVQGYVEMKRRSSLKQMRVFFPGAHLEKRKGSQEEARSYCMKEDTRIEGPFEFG
Experimental: as §1

[3] = test system: T3, Rep nickase domain of cabbage leaf curl virus
T3 sequence (residues 1-116, tag not shown): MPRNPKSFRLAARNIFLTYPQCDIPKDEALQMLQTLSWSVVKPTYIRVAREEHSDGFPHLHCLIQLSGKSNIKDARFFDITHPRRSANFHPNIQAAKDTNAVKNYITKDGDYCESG
Experimental: as §1

[4] = test system: T4, Rep nickase domain of chickpea chlorotic dwarf virus
T4 sequence (residues 1-124, tag not shown): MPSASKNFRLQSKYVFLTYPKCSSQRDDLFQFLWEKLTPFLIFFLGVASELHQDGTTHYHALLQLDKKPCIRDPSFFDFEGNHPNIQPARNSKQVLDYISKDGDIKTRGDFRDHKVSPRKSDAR
Experimental: as §1

[5] = test system: T5, Rep nickase domain of faba bean necrotic yellows virus
T5 sequence (residues 1-98, tag not shown): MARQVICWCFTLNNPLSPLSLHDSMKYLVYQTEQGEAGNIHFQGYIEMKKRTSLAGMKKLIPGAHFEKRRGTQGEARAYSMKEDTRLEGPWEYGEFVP
Experimental: as §1

[6] = test system: T6, Rep nickase domain of maize striate mosaic virus
T6 sequence (residues 1-117, tag not shown): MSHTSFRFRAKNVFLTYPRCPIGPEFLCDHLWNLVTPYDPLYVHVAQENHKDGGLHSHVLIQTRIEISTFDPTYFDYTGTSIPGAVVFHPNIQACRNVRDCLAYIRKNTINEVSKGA
Experimental: as §1

[7] = test system: T7, Rep nickase domain of porcine circovirus 2
T7 sequence (residues 2-116, tag not shown): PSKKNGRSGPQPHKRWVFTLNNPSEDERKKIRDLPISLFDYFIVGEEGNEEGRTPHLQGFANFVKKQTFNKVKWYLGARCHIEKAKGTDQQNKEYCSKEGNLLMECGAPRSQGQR
Experimental: as §1

[8] = test system: T8, Rep nickase domain of tomato yellow leaf curl virus
T8 sequence (residues 1-136, tag not shown): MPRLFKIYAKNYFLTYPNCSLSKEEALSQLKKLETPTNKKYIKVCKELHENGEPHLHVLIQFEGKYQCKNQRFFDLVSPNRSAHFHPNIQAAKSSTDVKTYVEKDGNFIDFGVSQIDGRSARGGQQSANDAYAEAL
Experimental: as §1

[9] = test system: T9, Rep nickase domain of wheat dwarf virus
T9 sequence (residues 1-137, tag not shown): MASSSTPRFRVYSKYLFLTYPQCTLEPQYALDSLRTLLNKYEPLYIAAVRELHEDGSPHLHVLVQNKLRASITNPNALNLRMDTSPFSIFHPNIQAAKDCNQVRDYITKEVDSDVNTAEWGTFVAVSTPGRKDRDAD
Experimental: as §1

Row | Sequence | uncleaved DNA left (log2) [1] | uncleaved DNA left (log2) [2] | uncleaved DNA left (log2) [3] | uncleaved DNA left (log2) [4] | uncleaved DNA left (log2) [5] | uncleaved DNA left (log2) [6] | uncleaved DNA left (log2) [7] | uncleaved DNA left (log2) [8] | uncleaved DNA left (log2) [9]
1 | TCTGCCA | 0.0202 | -0.0391 | -0.181 | -0.786 | 0.0158 | -0.684 | -0.0806 | 0.00353 | -0.0578
2 | CCACGCA | -0.138 | -0.122 | -0.404 | -0.576 | -0.0302 | -0.938 | -0.0706 | -0.129 | -0.143
3 | TCAAGAT | 0.1 | 0.136 | 0.23 | 0.835 | 0.127 | 1.48 | 0.189 | -0.0491 | 0.123
4 | CCATTGT | -0.158 | -0.103 | -0.747 | -0.345 | -0.00978 | -0.963 | -0.21 | 0.0688 | -0.193
5 | CTAATCA | 0.0309 | 0.072 | 0.294 | -0.419 | -0.0118 | -0.107 | 0.0211 | 0.171 | 0.0746
6 | TCGCATG | -0.242 | -0.218 | -0.298 | -0.425 | -0.1 | -0.422 | -0.0933 | -0.0547 | -0.218
7 | GTAACAT | 0.056 | 0.111 | 0.52 | 1.46 | 0.00857 | 2.06 | 0.184 | 0.0986 | 0.168
8 | CGGATGC | -0.0268 | -0.0648 | -0.0557 | 0.297 | -0.0655 | 0.0118 | -0.0395 | -0.0856 | -0.0666
9 | GGTCCGT | -0.0253 | 0.0744 | 0.452 | 1.14 | -0.0782 | 1.41 | 0.134 | 0.0221 | 0.0322
10 | ATTTCGT | -0.117 | -0.124 | -0.564 | -1.14 | 0.0293 | -1.22 | -0.273 | -0.0875 | -0.154
11 | AGTTTCT | -2.07 | -0.463 | -0.0241 | -1.71 | -0.212 | -0.119 | -3.65 | -0.0194 | -0.122
12 | GCAACAG | -0.00967 | 0.147 | -0.35 | -0.629 | 0.133 | -0.728 | 0.268 | 0.162 | 0.0108
13 | GTAAACG | -0.0351 | 0.0421 | -0.662 | -0.54 | -0.0219 | -0.767 | 0.111 | -0.0116 | -0.103
14 | ACGGATA | -0.0539 | 0.00054 | -0.0572 | 0.241 | 0.0319 | 0.683 | 0.178 | -0.184 | -0.0275
15 | CCGGCCT | -0.0155 | 0.107 | 0.0535 | -0.674 | -0.00826 | 0.262 | -0.127 | 0.0201 | -0.311
16 | AACATTG | 0.109 | 0.0293 | -0.651 | -0.595 | 0.115 | -1.02 | 0.179 | 0.0652 | -0.0266
17 | AGAATGG | 0.0717 | 0.0744 | -0.0643 | 0.145 | 0.0507 | -0.684 | 0.0798 | -0.0548 | 0.0593
18 | AGAGGTT | 0.0627 | -0.115 | 0.238 | 1.04 | 0.0482 | 1.6 | 0.0316 | -0.153 | -0.0598
19 | TTAACCG | -0.218 | 0.0233 | -0.873 | -1.14 | 0.0491 | -1.02 | 0.0255 | -0.0334 | -0.103
20 | AACACTG | -0.0357 | 0.012 | 0.0326 | 0.642 | 0.017 | 1.11 | 0.0568 | -0.0541 | 0.0622
21 | CTCCCAC | -0.0784 | 0.0615 | 0.0282 | -0.549 | 0.0411 | -0.454 | -0.0336 | 0.048 | -0.0315
22 | TGAGGAT | 0.0028 | 0.113 | 0.39 | 1.66 | -0.0496 | 1.93 | 0.201 | -0.0565 | 0.0553
23 | TGCATGC | 0.186 | 0.0791 | -0.0636 | -0.108 | -0.0283 | -0.764 | 0.295 | 0.155 | -0.0151
24 | CAAGATC | -0.0348 | 0.0109 | -0.0493 | -0.578 | 0.135 | -0.299 | 0.00708 | 0.0871 | 0.0647
25 | CAACAAT | 0.171 | 0.153 | -0.492 | -2.14 | 0.0967 | -0.448 | -0.18 | 0.171 | 0.0258
26 | AGAATCA | 0.00826 | 0.0663 | 0.43 | 0.525 | 0.0075 | 0.813 | 0.0578 | 0.0759 | 0.266
27 | GAGATGG | 0.0435 | 0.0897 | 0.219 | 0.597 | 0.00617 | 0.499 | 0.12 | 0.0257 | 0.0637
28 | CCCACCG | -0.1 | -0.0153 | -0.63 | -0.225 | -0.0229 | -0.775 | 0.0407 | -0.0119 | 0.0276
29 | ATGACAC | -0.0162 | -0.08 | 0.102 | 0.556 | -0.106 | -0.00657 | -0.073 | 0.0369 | 0.108
30 | ATTCATA | -0.11 | -0.0929 | -0.172 | -1.32 | -0.0536 | -0.547 | -0.128 | 0.0493 | 0.0236
